The results in this text go back to the RNAGym collection of RNA variant scans (doi:10.7554/elife.90254).

Read counts are not given, so values of variants with three or more changes are uncertain.

The chains are these.
B1: OR4K15 (parent)
chain: GUUAACGGUCAUAGGCCAUGGAAACUAGGAGCACCAUUUCGCUGCCAGUGAAGAAAUGAACAAAGAAAAUCUGGGCCAGGCAGGCAUCAAAAGAAAUAGUCUUGCGCUCAACCAGAAAGUCUGUAAUCAUUUUAAGGGUA

This data set covers variants of B1. Kind of data set: self-cleavage, relative activity (ratio to wild type); higher = more cleavage; in vitro, sequencing; the parent is a self-cleaving ribozyme.
GUUAACGGUCAUAGGCCAGGGAAACUAGGAGCACCAUUUCGCUGCCAGUGAAGAAAUGAACAAAGAGAAUCUGGGCCAGGCAGGCAUCAAAAGAAACAGUCUUGCGCUCAACCAGAAAGUCUGUAAUCAUUUUAAGGGUA: the self-cleavage is 1.97. On to GUUAACGGUCAUAGGCCAGGGAAACUAGGAGCACCAUUUCGCUGCUGGUGAAGAAAUGAACAAAGAAAAUCUGGGCCAGGCAGGCAUCAAAAGAAAUAGUCUUGCGCUCAACCAGAAAGUCUGUAAUCAUUUUAAGGGUA, for which the self-cleavage came to 0.79.

As for GUUAACGGUCAUAGGCCACGGAAACUAGGAGCACCAUUCCGCUGCCAGUGAAGAAAUGAACAAAGAAAAUCUGGGCCAGGCAGGCAUCAAAAGAAAUAGUCUUGCGCUCAGCCAGAGAGUCUGUAAUCAUUUUAAGGGUA, the self-cleavage was 0.

For the variant GUUAACGGUCAUAGGCCACGGAAACUAGGAGCACCAUUUCGCUGCCAGUGAAGAAACGGACAAAGAAAAUCUGGGCCAGGCAGGCAUCAAAAGAAAUAGUCUUGCGCUCAACCAGAAAGUCUGUAAUCAUUUUAAGGGUA, the self-cleavage was found to be 1.75. Consider GUUAACGGUCAUAGGCCACGGAAACUAGGAGCACCAUUUCGCUGCCAGUGAAGAAAUGAACAAAGAAAAUCUGGGCCAGGCAGGCACCAAAAGAAAUAGUCUUGCGCACAGCCAGAAAGUCUGUAAUCAUUUUAAGGGUA, for which the self-cleavage amounted to 0. Under GUUAACGGUCAUAGGCCAGGGAAACCAGGAGCACCGUUUCGCUGCCAGUGAAGAAAUGGACAAAGAAAAUCUGGGCCAGGCGGGCAUCGAAAGAGAUAGUCUUGAGCUCAACCAGUAAGUCUGUAAUCAUUUUAAGGGUA stands 0.06; under GUUAACGGUCAUAGGCCAUAGAAACUAGGAGCACCAUUUCGCUGCCGGUGAGGAAAUGAACAAAGAAAAUCUGGGCCAGGCAGGCAUCAAAAGAAAUAGUCUUGCGCUCAACCAGAAAGUCUGUAAUCAUUUUAAGGGUA, 1.1. Under GUUAACGGUCAUAGGCCAGGGAGACUAGGAGCACCAUUUCGCUGCCAGUGUAGAAAUGAACAAAGAAAAUCUGGGCCAGGCAGGCAUCAAAAGAAAUAGUCUUGCGCUCAACCAGAAAGUCUGUAAUCAAUUUAAGGGUA stands 0.85; under GUUAACGGUCAUAGGCCACGGAAACUAGGAGCACCAUUUCGCUGCCAGUGAAGAAAUGAACAAAGAAAAUCUGGGCCAGGCAGGCAGCAAAAGAAAUAGUCUCGCGCUCAACCAGAAAGUCUGUAAUCAUUUUAAGGGUA, 0.11; under GUUAACGGUCAUAGGCCACGGAAACCAGGAGCACCAUUUCGCUGCCAGUGAAGAAAUGAACAAAGAAAAUCUGGGCCAGGCAGGCAUCAAAAGAAAUAGUCUUGCGCUCAACCAGAAAGCCUGUAAUCAUUUUAAGGGUA, 0.81. Regarding GUUAACGGUCAUAGGCCACGGAAACUAGGAGCACCAUUUCGCUGCCAGUGAAGAAAUGAACAAAGAAAACCUGGGCCAGGCAGGCAUCAAAAGAAGUAGUCUUGCGCUCAGCCAGAAAGUCUGUAAUCAUUUUAAGGGUA, the self-cleavage was 0.01.

Turning to GUUAACGGUCAUAGGCCACGGAAACUAGGAGCACCAUUUCGCUGCCAGCGAAGAAAUGAACAAAGAAAAUCUGGGCCAGGCAGGCGUCAAAAGAAAUAGUCUUGCGCUCAACCAGAAAGUCUGUAAUCAUUUUAAGGGUA, the self-cleavage is 0.45. For the variant GUUAACGGUCAUAGGCCAGGGAAACUAGGAGCACCAUUUCGCUGCCAGUGAAGAAAUGGACAAAGAAAAUCUGGGCCAGGCAGGCAUCAAAAGAAAUAGUCUUGCGCUCGACCAGAAAGUCUGUAAUCAUUUUAAGGGUA, the self-cleavage is 0.19.

For GUUAACGGUCAUAGGCCACGGAAACUAGGAGCACCAUUUCGCUGCCAGCGAAGAAAUGUACAAGGAAAAUCUGGGCCAGGCAGGCAUCAAAAGAAAUAGUCUUGCGCUCAACCAGAAAGUCUGUAAUCAUUUUAAGGGUA, the self-cleavage came to 1.1. For GUUAACGGUCAUAGGCCACGGAAACUAGGAGCACCAUUUCGCUGCCAGUGAAGAAACGAACAAAGAAAAUCUGGGCCAGGCAGGCGUCGAAAGAAAUUGUCUUGCGCUCAACCAGAAAGUCUGUAAUCAUUCUAAGGGUA the value was 0.68. Under GUUAACGGUCAUAGGCCACGGAAACUAGGAGCACCAUUUCGCUGCCAGUGAAGAAAUGAACAAAGAAAAUCUGGGCCAGGCAGGCACCAAAAGAAAUAGUCUUGCGCUCUACCAGAAAGUCCGUAAUCAUUUUAAGGGUA stands 0.54; under GUUAACGGUCAUAGGCCACGGAAACUAGGAGCACCAUCUCGCUGCCAGUGAAGAAAUGAACAAAGAAAAUCGGGGCCAGGCAGGCAUCAAAAGAAAUAGCCUUGCGCUCAACCAGAAAGUCUGUAAUCAUUUUAAGGGUA, 0.31. Under GUUAACGGUCAUAGGCCAGGGGAACUAGGGGCACCAUUUCGCUGCCAGUGAAGAAAUGAACAAAGAAAAUCUGGGCCAGGCGGGCAUCAAAAGAAAUAGUCUUGCGCUCAACCAGAAAGUCUGUAAUCAUUUUAAGGGUA stands 0.92; under GUUAACGGUCAUAGGCCACGGAAACUAGGAGCACCAUUCCGCUGCCAGUGGAGAAAUGAACAAAGAAAAUCUGGGCCAGGCAGGCAUCAAAAGAAAUAGUCCUGCGCUCAGCCAGAAAGUCUGUAAUCAUUUUAAGGGUA, 0; under GUUAACGGUCAUAGGCCACGGAAACUAGGAGCACCAUUUCGCUGCCAGUGAAGAAAUGAACAAAGAAAAACUGGGCCGGGCAGGCAUCAAAAGGAAUAGUCUUGCACUCAACCAGAAAGUCUGUAAUCAUUUUAAGGGUA, 0.02. GUUAACGGUCAUAGGCCACGGAAACUAGGAGCACCAUUCCGCUGCCAGUGAAGAAAUGAUCAAAGAAAAUCUGGGCCAGGCAGGCAUCAAAAGAAAUAGUCUUGCGCUCAACCAGAAAGUCUGUAAUCAUUUUAAGGGUA: the self-cleavage was 1.53. For GUUAACGGUCAUAGGCCACGGAAACUAGGAGCACCAUUUCGCUGCCAGUGAAGAAAUGAACAAAGAAAAUCUGGGCCAGGCAGGCACCAAAAGAAAUAGUCUUGCGCCCAACCAGAAAGUCUGUAAUCAUUUUAAGGGUA the value was 0.01.

In the case of GUUAACGGUCAUAGGCCAUAGAGACUAGGAGCACCAUUUCGCUGCCAGUGAAGGAAUGAACAAAGAAUACCUGGGCCAGGCAGGCAUCAAAAGAAAUAGUCUUGCGCUCAACCGGAAAGUCUGUAAUCAUUUUAAGGGUA, the self-cleavage came out at 0.14. For GUUAACGGUCAUAGGCCACGGAAACUAGGAGCACCAUUUCGCUGCCAGUGAAGAAAUGAACAAAGAAAAUCUGGGCCAGGCAGGCAUCAAAAGAAAGAGUCUUGCGCUCAACCAGAAAGUCUGUAAUCACUUUAAGGGUA the value was 0.97; for GUUAACGGUCAUAGGCCACGGAAACUAGGAGCACCAUCUCGCUGCCGGUGAAGAAAUGAACAAAGAAAAUCUGGGCCAGGCAGGCAUCAAAAGAAAUAGUCUUGCGCUCAACCAGAAAGUCUGUAAUCAUUUUAAGGGUA, 0.7. On to GUUAACGGUCAUAGGCCACGGAAACUAGGAGCACCAUUUCGCUGCCAGUGAAGAAAUGAACAAAGAAAAUCUGGGCCAGGCAGGCAUCAAAAGAAAUAGUCUUGCGCUCAACCAGAAAGUCUGCUAUCAUUUUAAGGGUA, for which the self-cleavage stood at 1.05. GUUAACGGUCAUAGGCCACGGAAACUAGGAGCACCAUUUCGCUGCCAGUGAAGAAAUGAACAAAGAAAAUCUGGGCCAGGCAGGCAUCAAAAGAAAUAGUCUUGCGCUCAACCAGAAAGUCCGUAAUCAUUUUAAGGGUU: the self-cleavage is 1.24. For GUUAACGGUCAUAGGCCACGGAAACUAGGAGCACCAUUUCGCUGCCAGAGAAUAAAUGAACAAAGAAAAUCUGGGCCAGGCAGGCAUCAGAAGAAAUAGUCUUGCGCUCAACCAGAAAGUCUGUAAUCAUUUUAAGGGUA the value was 1.06; for GUUAACGGUCAUAGGCCACGGAAACUAGGAGCACCAUUUCGCUGCCAGGGAAGAAAUGAACAAAGAAAAUCUGGGCCAGGCAGGCAUCAGAAGAAAUAGUCUUGCGCUCAACCAGAAAGUCUGUAAUCAUUUUAAGGGUA, 1.24; for GUUAACGGUCAUAGGCCACGGAAACUAGGAGCACCAUUUCGCCGCCAGUGAAGAAAUGAACAAAGAAAAUCUGGGCCAGGCAGGCAUCAAAAGAAAUAGUCCUGCGCUCAACCAGAAAGUCUGUAAUCAUUUUAAGGGUA, 1.75. For GUUAACGGUCAUAGGCCACGGAAACUAGGAGCACCAUUUCGCUGCCAGUGAAGAAACGAACAAGGAAAAUCUGGGCCGGGCAGGCAUCAAAAGAAAUAGUCUUGCGCUCAACCAGAGAGUCUGUAAUCAUUUUAAGGGUA the value was 0.4; for GUUAACGGUCAUAGGCCACGGAAACUAGGAGCACCAUUUCGCUGCCAGCGAAGAAAUGAUCAAAGAAAAUCUGGGCCAGGCAGGCAUCAAAAGAAAUAGUCUUGCGCUCAACCAGAAAGUCUGUAAUCAUUUUAAGGGUA, 0.76. On to GUUAACGGUCAUAGGCCAGGGAGACUAGGAGCACCAUAUCGCUGCCAGUGAAGAAAUGAACAAAGAAAAUCUGGGCCAGGCAGGCAACAAAAGAAAUAGUCUUGCGCUCAACCAGAAGGUCUGUAAUCAUUUGAAGGGUA, for which the self-cleavage was 1.78.

As for GUUAACGGUCAUAGGCCAGGGAAACUAGGAGCACCACUUCGCUGCCAGUGAAGAAGUGAACAAAGAAAAUCUGGGCCAGGCAGGCAUCAAAAGAAAUAGUCUUGCGCUCAACCAGAAAGUCUGUAAUCAUUUUAAGAGUA, the self-cleavage amounted to 0.76. Under GUUAACGGUCAUAGGCCACGGAAACUAGGAGCACCAUUUCGCUGCCAGUGAAGAAAUGAACAAAGAAAAUCUGGGCCAGGCAGGCAUCAAAAGAAAUAGUCCUGCGCUCAACCAGAAAGUCCGUAAUCAUUUUAAGGGUA stands 0.32; under GUUAACGGUCAUAGGCCACGGAAACUAGGAGCACCAUUUCGCUGCCAGUGAAGAAAUGAACAAAGAAAACCUGGGCCAGGCAGGCAUCAAAAGAAAUAGUCUUACGCUCAACCAGAAAGUCUGUAAUCAUUUUAAGGGUA, 0.04. With GUUAACGGUCAUAGGCCACGGAAACUAGGAGCACCAUCUCGCUGCCAGUGAAGUAGUGAACAAAGAAAAUCUGGGCCAGGCAGGCAUCAAAAGAAAUAGUCUUGCGCUCAACCAGAAAGUCUGUAAUCAUUUUAAGGGUA, the self-cleavage was found to be 0.64. Under GUUAACGGUCAUAGGCCACGGAAACUAGGAGCACCAUUACGCUGCCAGUGAAGAAAUGAACAAAGAAAAUCUGGGCCAGGCAGGCACCAAAAGAGAUAGUCUUGCGCUCAACCAGAAAGUCUGUAAUCAUUUUAAGGGUA stands 1.83; under GUUAACGGUCAUAGGCCACGGAAACUAGGAGCACCAUCUCGCUGCCGGUGAAGAAAUGAACAGAGAAAAUCUGGGCCAGGCAGGCAUCAAAAGACAUAGUCCUGCGCUCAACCAGAAAGUCUGUAAUCAUUUUAAGGGUA, 1.33; under GUUAACGGUCAUAGGCCACGGAAACUAGGAGCACCAUCUCGCUGCCAGCGAAGAAAUGAACAAAGAAAAUCUGGGCCAGGCAGGCAUCAAAAGAAAUAGUCUUGCGCUCAACCAGAAAGUCUGUAAUCAUUUUAAGGGUA, 0.33. Under GUUAACGGUCAUAGGCCACGGAAACUAGGAGCACCAUUCCGCUGCCAGUGAAGAAAUGAACAAAGAAAAUCUGGGCCAGGCAGGCAUCAAAAGAAAUAGUCUUGCGCUCAACCAGAAGGUCUGUAAUCAUUUUAAGGGUA stands 1.63.
